Laboratory results as given in PMC4336329 (PLoS ONE, 2015).
In all, about 310,000 compounds went through this assay and about 2,200 (0.71%) showed an effect of 50% or more. Effects have a minus sign here. The list shows a part of the results.

Each compound was assayed against human ether-à-go-go-related gene (hERG) potassium channel (human, UniProt Q12809) (assay: primary screen, population patch clamp on CHO cells stably expressing hERG).
Chain of human ether-à-go-go-related gene (hERG) potassium channel (Q12809 whole entry, looked up): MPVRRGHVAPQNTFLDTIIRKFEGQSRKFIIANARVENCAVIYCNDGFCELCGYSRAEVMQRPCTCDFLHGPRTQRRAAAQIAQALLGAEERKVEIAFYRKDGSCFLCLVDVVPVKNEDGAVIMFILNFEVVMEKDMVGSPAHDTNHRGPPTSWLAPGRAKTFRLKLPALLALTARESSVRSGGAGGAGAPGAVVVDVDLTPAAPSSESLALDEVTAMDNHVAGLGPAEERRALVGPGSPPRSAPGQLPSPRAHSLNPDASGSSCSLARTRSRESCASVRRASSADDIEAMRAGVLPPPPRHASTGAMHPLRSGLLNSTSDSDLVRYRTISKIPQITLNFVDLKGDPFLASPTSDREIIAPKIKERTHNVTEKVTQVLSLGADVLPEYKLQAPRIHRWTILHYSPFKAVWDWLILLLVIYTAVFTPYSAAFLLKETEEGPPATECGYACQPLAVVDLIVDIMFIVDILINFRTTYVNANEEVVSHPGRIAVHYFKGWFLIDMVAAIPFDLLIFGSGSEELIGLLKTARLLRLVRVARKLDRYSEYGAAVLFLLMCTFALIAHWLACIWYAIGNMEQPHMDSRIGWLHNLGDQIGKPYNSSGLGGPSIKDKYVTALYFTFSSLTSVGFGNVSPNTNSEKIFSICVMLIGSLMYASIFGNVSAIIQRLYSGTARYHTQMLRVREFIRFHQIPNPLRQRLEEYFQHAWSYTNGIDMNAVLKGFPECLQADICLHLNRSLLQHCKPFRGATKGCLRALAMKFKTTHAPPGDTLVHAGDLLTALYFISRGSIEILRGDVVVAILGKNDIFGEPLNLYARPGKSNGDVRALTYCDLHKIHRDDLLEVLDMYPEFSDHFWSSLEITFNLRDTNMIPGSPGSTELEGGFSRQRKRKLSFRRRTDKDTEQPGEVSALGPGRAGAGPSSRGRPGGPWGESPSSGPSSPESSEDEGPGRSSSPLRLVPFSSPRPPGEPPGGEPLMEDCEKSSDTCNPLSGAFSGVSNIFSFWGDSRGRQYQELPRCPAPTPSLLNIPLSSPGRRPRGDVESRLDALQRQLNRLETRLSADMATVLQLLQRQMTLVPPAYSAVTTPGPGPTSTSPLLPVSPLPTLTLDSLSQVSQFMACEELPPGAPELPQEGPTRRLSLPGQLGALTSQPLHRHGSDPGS

| SMILES | hERG current change (%, negative = inhibition) at 1uM |
| --- | --- |
| Cn1c(=O)[nH]c(=O)c2c1nc(N1CCCCCC1)n2CCN1CCCCCC1 | 9.41% |
| C#CCOC(=O)/C(=C/C=C/c1ccccc1)NC(=O)c1ccccc1 | 1.57% |
| Cc1cc(C(C)(C)C)cc(S(=O)(=O)Nc2ccc(C(=O)O)cc2)c1C | 12.4% |
| O=C(Nc1ncc([N+](=O)[O-])s1)C1COc2ccccc2O1 (centres unmarked) | 19.9% |
| CCOC(=O)c1sc(NS(=O)(=O)c2ccc(F)cc2)nc1C | 10% |
| CC1CC(C)(C)NC(=S)N1CCC(=O)NCCc1ccc(Cl)cc1 (centres unmarked) | 8.3% |
| CCOc1cccc(-c2nc(C(N)=O)c3[nH]c(=O)n(-c4cccc(Cl)c4)c3n2)c1O | 17.5% |
| O=C(NC1CCN(Cc2ccccc2)CC1)c1cccc(S(=O)(=O)Nc2ccc(Br)cc2)c1 | 3.68% |
| CCCOc1ccc2ccccc2c1/C=C1\SC(=O)NC1=O | 9.43% |
| O=C(Nc1nc(-c2ccccn2)cs1)c1ccc(-c2ccccc2F)o1 | 10.5% |
| O=C(CC1SC(=Nc2ccc(O)cc2)NC1=O)Nc1ccccc1 (centres unmarked) | 3.55% |
| NC(=O)CN1CCCC1=O | 5.39% |
| COCCN(C(=S)Nc1ccc(C)cc1)C(C)c1cccnc1 (centres unmarked) | 8.02% |
| Cc1ccc2c(c1)C(=O)C(=O)N2CCCOc1ccccc1C | 4.6% |
| CN(C)CCOC(=O)C12CC3CC(CC(C3)C1)C2.Cl | 12.2% |
| COC(=O)CN=C1OC(=O)N2C(=O)C3=C4[C@@H](C[C@H]5C(=O)N(c6ccccc6)C(=O)[C@H]5[C@H]4[C@@]12Cc1ccccc1)[C@H]1C(=O)N(c2ccccc2)C(=O)[C@H]1[C@H]3C | 8.66% |
| COc1ccc(CCn2c(O)c(C=NC3CC3)c(=O)[nH]c2=O)cc1OC | 13.4% |
| COc1ccc(N2CCN(C(=O)COc3ccc(Cl)cc3Cl)CC2)cc1 | -4.88% |
| CCOC(=O)C1=C(C)N=C2SCCC(=O)N2C1c1ccc(C(=O)OC)cc1 (centres unmarked) | 3.06% |
| O=C(Nc1ccn(Cc2ccc(Cl)cc2)n1)c1ccccc1 | -8.06% |
| CC(=O)c1ccc(N(C(=O)CNC(=O)c2cccs2)C(C(=O)NCC2CCCO2)c2ccccc2)cc1 (centres unmarked) | 12.4% |
| COc1ccc(C(=O)NCS(=O)(=O)c2ccc(C)cc2)cc1 | -3.34% |
| Cc1ccccc1OCc1nnc(SCC(=O)Nc2ccc3c(c2)OCO3)n1C | 10% |

| SMILES | hERG current change (%, negative = inhibition) at 1uM |
| --- | --- |
| CC1CCN(c2c([N+](=O)[O-])c(=O)n(-c3ccccc3)c3ccccc23)CC1 | 12.1% |
| O=C(CN1C(=O)c2ccccc2S1(=O)=O)NC1CCCCC1 | 0.655% |
| CCC1OC23CCCCC2C(C#N)(C(=N)O3)C1(C#N)C#N (centres unmarked) | 15.9% |
| CCOC(=O)c1c(C)[nH]c(C(=O)CN2CCOCC2)c1C | 2.15% |
| CC1CN(Cc2nc3ccccc3c(=O)[nH]2)CC(C)O1 (centres unmarked) | 8.38% |
| Oc1ccc(Cl)cc1N=Cc1sc2ccccc2c1Cl | 14.7% |
| Cc1ccc(NC(=O)C(C)Sc2nc(-c3ccccc3)cc(=O)[nH]2)cc1 (centres unmarked) | 12.3% |
| Cc1cccnc1NC(=O)CNC(=O)C1CCCCC1 | 15.6% |
| CCOC(=O)Cc1c[nH]c2ccccc12 | 14.8% |
| Cc1ccc(Cn2c(SCC(=O)N3CC(=O)Nc4ccccc43)nc3ccccc3c2=O)cc1 | -8.74% |
| CCCCCOC(=O)c1ccc(N2C(=O)C3C4C=CC(C4)C3C2=O)cc1 (centres unmarked) | 7.24% |
| COc1ccc2c(c1)S/C(=C\C(=O)c1ccncc1)N2C | -2.04% |
| O=C(COc1cc(F)ccc1[N+](=O)[O-])N1N=C(c2cccs2)CC1c1ccco1 (centres unmarked) | -1.45% |
| O=C(CCNC(=O)c1ccccc1Cl)Nc1cccc(S(=O)(=O)N2CCOCC2)c1 | 5.13% |
| Cn1nc(-c2ccccc2)c(CSc2ccccc2Cl)c1Cl | 4.19% |
| O=C(c1ccc(S(=O)(=O)N2CCOCC2)cc1)N1CCN=C1SCc1cccnc1 | 8.77% |
| Cl.Oc1cccc(Nc2nc(-c3ccccc3Cl)nc3ccccc23)c1 | 12.1% |
| CC(C)Cc1nc2c(nnn2Cc2ccccc2F)c(=O)[nH]1 | 1.08% |
| O=C1N=C(N2CCCCC2)S/C1=C\c1cn[nH]c1-c1ccccc1 | 4.92% |
| CCCCCN(C(=O)CCC(=O)OC(C)C(=O)c1ccccc1)c1c(N)n(CCCC)c(=O)[nH]c1=O (centres unmarked) | 5.07% |
| Cc1nc2nc(SCC(=O)NCCCN3CCOCC3)nn2c(C)c1Cc1ccccc1 | 5.83% |
| Clc1ccc(-c2nnc(SCc3nc4ccccc4s3)o2)cc1 | 5.49% |
| COc1ccc(OC)c(S(=O)(=O)N2CCN(c3ncccn3)CC2)c1 | 4.85% |

| SMILES | hERG current change (%, negative = inhibition) at 1uM |
| --- | --- |
| C/C=C(\C)CN1CCN(c2cccc(C)c2C)CC1 | 12% |
| O=C(Cn1ccc2ccccc2c1=O)NCC(=O)N1CCN(c2ccccc2F)CC1 | 17.8% |
| C=C(c1ccccc1)c1ccc(N(C)C)cc1 | 13.6% |
| O=C(O)c1ccc(S(=O)(=O)N(Cc2ccc(F)cc2)C2CCCCC2)cc1 | 13% |
| O=C(CN1CCc2ccccc21)Nc1ccc2c(c1)OCCCO2 | 0.584% |
| O=C(Nc1nnc(-c2ccc(Br)cc2)o1)c1cccc(N2C(=O)CCC2=O)c1 | 14.9% |
| COc1ccc(C(=O)CN2C(=O)COc3ccccc32)cc1 | -4.39% |
| O=C(NCCCN1CCCC1=O)NC12CC3CC(CC(C3)C1)C2 | 12.2% |
| CCOc1cnc(-c2ccc(Cl)cc2)o1 | 6.76% |
| CCCCOC(=O)c1ccc(NC(=O)C(=O)NCc2ccco2)cc1 | 9.45% |
| CC(OC(=O)Cc1ccccc1[N+](=O)[O-])C(=O)NC(=O)NC1CCCCC1 (centres unmarked) | 11.3% |
| CC(=O)Nc1ccc(C(=O)N(C2=NC(C)CS2)c2ccc(Cl)cc2)cc1 (centres unmarked) | 16.8% |
| CCOc1ccc(S(=O)(=O)N(C)CC(=O)NCCN2CCOCC2)cc1 | 12.1% |
| Cc1cccc(C)c1NC(=O)CNC(=O)C(C)N1CCN(c2cccc(Cl)c2)CC1 (centres unmarked) | 0.101% |
| O=C(CCS(=O)(=O)c1cccc2nonc12)NCc1ccc(Cl)cc1 | 6.25% |
| CCN1CCCC1Cn1cnc2c([nH]c3ccc(OC)cc32)c1=O (centres unmarked) | -58.5% |
| COC(=O)NN=C1CCC(c2ccccc2)CC1 (centres unmarked) | 12.2% |
| COc1ccc(C(c2nnnn2CC2CCCO2)N2CCN(c3ccccc3)CC2)cc1 (centres unmarked) | 11.3% |
| COC(=O)c1cc(NC(=O)c2cccs2)ccc1N1CCOCC1 | 11.2% |
| COC(=O)c1ccc2c(=O)n(Cc3ccc(C(=O)NC4CCCC4)cc3)c(=S)[nH]c2c1 | -2.9% |
| COc1cc(CN2CCSCC2)cc(OC)c1OC | 5.13% |
| N/C(=N\OC(=O)c1ccco1)c1ccc(Br)cc1 | 8.69% |
| O=C(COC(=O)c1ccc(Br)o1)NCCCc1ccccc1 | 7.32% |

| SMILES | hERG current change (%, negative = inhibition) at 1uM |
| --- | --- |
| CCOC(=O)N1CCN(Cc2nc(-c3ccc(C)cc3)no2)CC1 | -10.7% |
| Nc1ncnc2c1ncn2C1O[C@H](CO)[C@@H](O)[C@@H]1O (some centres unmarked) | 3.34% |
| CN1C2CCC1CC(NC(=O)CSc1ccc(Cl)cc1)C2 (centres unmarked) | 9.33% |
| COc1ccc(CNS(=O)(=O)c2ccc3c(c2)C(C)(C)C(=O)N3C)cc1 | 8.45% |
| COc1cc(C2N(c3cccc(Cl)c3)C(=O)C3CCCN32)cc(OC)c1OC (centres unmarked) | 7.5% |
| O=C1c2ccccc2C(=O)N1Nc1ccccc1 | 2.53% |
| CCN(CC)S(=O)(=O)c1ccc(C)c(NC(=O)/C=C/c2cccs2)c1 | 8.76% |
| CCOC(=O)c1ccc(NC(=O)CN2C(=O)CN(C(C)=O)C2=S)cc1 | 12.5% |
| CC(C)CCNC(=O)C(Cc1ccccc1)NS(=O)(=O)c1ccc2c(c1)c(=O)n(C)c(=O)n2C (centres unmarked) | 5% |
| Clc1ccc(Cn2cc(/C=N/n3cnnc3)c3ccccc32)c(Cl)c1 | 13.1% |
| Cc1ccc(C(=O)Nc2nccs2)cc1S(=O)(=O)N1CCCCC1 | 6.61% |
| Cc1c(Cl)cccc1NC(=O)CNc1ccccc1F | 11% |
| COc1ccc([C@@H]2[C@@H]3C(=O)N(C(C)(C)C)C(=O)[C@@H]3[C@]3(Cc4ccccc4)C(=O)N(c4cccc(Cl)c4)C(=O)N23)cc1 | 6.54% |
| CNC(=S)NNC(=O)c1cccn(Cc2cccc(Cl)c2)c1=O | 1.16% |
| O=C(COc1ccc(Cl)cc1Cl)Nc1ccccn1 | 5.15% |
| Cc1ccc(COc2ccc(Br)cc2/C=N/O)cc1 | 14.8% |
| COc1ccc(N2CCN(c3nc(NCCO)nc(N4CCOCC4)n3)CC2)cc1 | 9.27% |
| CCCCC(CC)C1OCC(CN2CCCC2)O1 (centres unmarked) | 8.83% |
| O=C(NNC1=NCCCCC1)c1cccc([N+](=O)[O-])c1 | 8.3% |
| CC[C@H](C)NC(=O)CCCCCn1c(=S)[nH]c2c([nH]c3ccc(OC)cc32)c1=O | 35.6% |
